{
  "source": "PubChem BioAssay AID588855",
  "about": "(National Center for Advancing Translational Sciences (NCATS), 2011)",
  "note": "Screen size: about 410,000 compounds; about 5,000 (1.2%) were called active. The inconclusive results got no clear call from the source; some entries with a clear call stand among them for comparison. Calls follow the shape of the dose curve; as a rule, active = well fitted inhibition curve with a large enough effect; inconclusive = small, poorly fitted or top-dose-only effect; inactive = no such curve, though single readings can be large or run the other way. Potencies beside an inconclusive call are fits to weak or partial responses and may not hold up. % is scaled to controls: 0 for no effect and ±100 for the full control effect; potency is read from the fitted curve at half-maximal effect; tags tell the direction and shape of the fitted curve.",
  "data": [
    {"experiment": "qHTS for Inhibitors of TGF-b; also: nearly all actives have a fitted effect of over 65% in size", "conditions": "HepG2 CAGA-GFP TGF-b/SMAD3 reporter, GFP fluorescence, 18 h, TGF-beta stimulated, 500 pg/mL final; series mostly up to 46.1 µM; activity, negative = inhibition: at the top concentration", "method_in_brief": "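Using HEPG2 CAGA-GFP reporter cells at 1000 cells/well, we pinned test compounds, stimulated with recombinant TGF-beta (500 pg/mL final) and measured total well GFP after 18 h.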", "values": [
      {"smiles": "CC(C)(O)CN(C(=O)c1ccccc1)C1CCCCC1", "activity, negative = inhibition": "inactive: -0.842%"},
      {"smiles": "O=C(Nc1cccc(C(F)(F)F)c1)C1CCN(c2nnc(-n3cccc3)s2)CC1", "Potency": "inconclusive: 12.6 µM [inhibitor, partial curve]"},
      {"smiles": "COc1cc(NS(=O)(=O)c2ccc(NC(=O)C(C)Oc3ccc(Cl)cc3Cl)cc2)nc(OC)n1", "note": "(stereo not drawn)", "Potency": "inconclusive: 25.1 µM [inhibitor, single point]"},
      {"smiles": "Cc1ccc(N2CCN(C(=O)c3cc(COc4c(C)cccc4C)on3)CC2)c(C)c1", "Potency": "inconclusive: 2.82 µM [inhibitor, full curve]"},
      {"smiles": "Cc1ccsc1CN(C)C(=O)CN1C(=O)NC2(CCCc3ccccc32)C1=O", "note": "(stereo not drawn)", "activity, negative = inhibition": "inactive: -15.5%"},
      {"smiles": "CCN(C(=O)/C=C/c1ccc2c(c1)OCO2)c1ccccc1", "Potency": "inconclusive: 35.5 µM [inhibitor, single point]"},
      {"smiles": "CSCc1cc(N2CCCC2)nc(-c2ccccc2)n1", "activity, negative = inhibition": "inactive: -0.716%"},
      {"smiles": "O=C(Cc1ccc(Cl)cc1)Nc1ccc(N2CCN(C(=O)c3ccco3)CC2)c(Cl)c1", "activity, negative = inhibition": "inactive: 0%"},
      {"smiles": "CCCn1c(C2CCCN2c2nc(-c3cccc(Br)c3)cs2)nc2ccccc21", "note": "(stereo not drawn)", "Potency": "inconclusive: 15.8 µM [inhibitor, single point]"},
      {"smiles": "COc1cc(-c2cc(C(=O)Nc3ccc(C)c(S(=O)(=O)N4CCOCC4)c3)c3ccccc3n2)cc(OC)c1OC", "activity, negative = inhibition": "inactive: -0.0852%"},
      {"smiles": "CCOC(=O)N1CCN(C(=O)c2ccccc2NC(=O)COc2ccccc2C)CC1", "activity, negative = inhibition": "inactive: -8.36%"},
      {"smiles": "Cc1ccc2nc(/C(C#N)=C/c3cccc(Br)c3)[nH]c2c1", "Potency": "inconclusive: 35.5 µM [inhibitor, single point]"},
      {"smiles": "CCN(CC(=O)NC(C)C)Cc1nc2c(Br)cc(Br)cc2c(=O)[nH]1", "Potency": "inconclusive: 35.5 µM [inhibitor, single point]"},
      {"smiles": "COCCNC(=O)c1ccc2c3n(nc2c1)-c1ccc(C)cc1CO3", "Potency": "inconclusive: 11.2 µM [inhibitor, single point]"},
      {"smiles": "c1ccc(C[n+]2cccc3c4ccccc4ccc32)cc1", "Potency": "inconclusive: 10 µM [inhibitor, partial curve, poor fit]"},
      {"smiles": "O=C(/C=C/c1ccccc1)Nc1cc(S(=O)(=O)N2CCOCC2)ccc1N1CCOCC1", "activity, negative = inhibition": "inactive: -3.22%"},
      {"smiles": "CC(C)(CNC(=S)NCCc1ccccc1)CNC(=S)NCCc1ccccc1", "Potency": "active: 15.8 µM"},
      {"smiles": "Oc1ccccc1-c1cc(-c2ccccc2)n[nH]1", "Potency": "inconclusive: 11.2 µM [inhibitor, partial curve, poor fit]"},
      {"smiles": "CCn1cc(C(=O)N2CCN(c3cc(Cl)ccc3C)CC2)c2cc(OC)c(OC)cc2c1=O", "Potency": "inconclusive: 11.2 µM [inhibitor, partial curve]"},
      {"smiles": "O=C(CCc1nc2ccccc2c(=O)[nH]1)N1CCN(S(=O)(=O)c2ccc(Cl)c(C(F)(F)F)c2)CC1", "Potency": "inconclusive: 10 µM [inhibitor, partial curve]"},
      {"smiles": "C=C1CCN([C@@H](CC(C)C)C(=O)NCc2ccc(Cl)c(Cl)c2)S(=O)(=O)c2ccccc21", "Potency": "inconclusive: 17.8 µM [inhibitor, single point]"},
      {"smiles": "[O-]/C(=C(\\C(=S)Nc1ccccc1F)[n+]1ccccc1)c1ccc(-c2ccccc2)cc1", "Potency": "inconclusive: 0.112 µM [inhibitor, full curve, poor fit]"},
      {"smiles": "C=CCc1ccccc1OCCOc1ccc([N+](=O)[O-])cc1/C=N/NC(N)=O", "activity, negative = inhibition": "inactive: 0.995%"},
      {"smiles": "Cc1ccccc1S(=O)(=O)N1[C@@H](c2cccc(Cl)c2)C(C(=O)O)=CC[C@H]1c1ccc(Cl)cc1", "Potency": "inconclusive: 35.5 µM [inhibitor, partial curve, poor fit]"},
      {"smiles": "Cc1ccc(Nc2cc(C)nc3nc(Cc4ccc(Cl)cc4)nn23)cc1", "Potency": "active: 3.98 µM"},
      {"smiles": "Cc1ccc(-c2ccc(=O)n(Cc3ccc(F)cc3)n2)cc1", "Potency": "inconclusive: 35.5 µM [inhibitor, single point]"},
      {"smiles": "O=C(COC(=O)C1CC2C=CC1C2)Nc1ccc([N+](=O)[O-])cc1", "note": "(stereo not drawn)", "activity, negative = inhibition": "inactive: -9.4%"},
      {"smiles": "O=S(=O)(c1ccc(F)cc1)N1CCC(Oc2ccc(-n3cnnn3)cc2)CC1", "Potency": "inconclusive: 22.4 µM [inhibitor, single point]"},
      {"smiles": "COC(=O)c1ccc(N=NN2CCCCC2)cc1", "activity, negative = inhibition": "inactive: -0.301%"},
      {"smiles": "Cc1cc(=O)oc2cc(OCc3ccc(C(=O)N4CCN(c5ccc([N+](=O)[O-])cc5)CC4)cc3)ccc12", "activity, negative = inhibition": "inactive: -6.42%"},
      {"smiles": "CC1CN(C(=O)CSc2nnc(-c3ccc(Cl)cc3)n2C)CC(C)O1", "note": "(stereo not drawn)", "Potency": "inconclusive: 35.5 µM [inhibitor, partial curve, poor fit]"},
      {"smiles": "CCOC(=O)c1[nH]c(C)c(C(=O)OCC)c1C", "Potency": "inconclusive: 11.2 µM [inhibitor, single point]"},
      {"smiles": "O=C(CSc1nc(=O)n(CCN2CCOCC2)c2c1CCCC2)Nc1ccc(F)cc1F", "activity, negative = inhibition": "inactive: -2.94%"},
      {"smiles": "COc1ccc(-c2noc(N3CCC(C(=O)NCCCN4CC(C)CC(C)C4)CC3)n2)cc1", "note": "(stereo not drawn)", "Potency": "inconclusive: 3.98 µM [inhibitor, single point]"},
      {"smiles": "CCN(Cc1ccncc1)C(=O)c1cc(COc2ccc(C)c(C)c2)on1", "activity, negative = inhibition": "inactive: -13.3%"},
      {"smiles": "CCOC(=O)c1c(-c2ccccc2)oc2ccc(NS(=O)(=O)c3ccc(OC)cc3)cc12", "Potency": "active: 12.6 µM"},
      {"smiles": "CC(C)(C)OC(=O)N1CCC(c2c(C(=O)NC3CCN(Cc4ccccc4)CC3)cnn2-c2cccc(F)c2)CC1", "Potency": "inconclusive: 14.1 µM [inhibitor, single point]"},
      {"smiles": "C=CCn1c(CCc2cc(C(C)(C)C)c(O)c(C(C)(C)C)c2)n[nH]c1=S", "Potency": "inconclusive: 12.6 µM [inhibitor, partial curve, poor fit]"},
      {"smiles": "O=C(/C=N/NC(=O)c1ccccc1Br)c1ccccc1", "activity, negative = inhibition": "inactive: -0.169%"},
      {"smiles": "CCOC(=O)C1CCN(C(=O)Nc2ccc3nc(-c4ccco4)c(-c4ccco4)nc3c2)CC1", "Potency": "inconclusive: 35.5 µM [inhibitor, single point]"},
      {"smiles": "O=C(Cc1cccs1)NCCS(=O)(=O)N1CCN(c2ccccc2F)CC1", "activity, negative = inhibition": "inactive: -5.55%"},
      {"smiles": "CCCCNC(=O)CCC(=O)NNc1nc2ccccc2c2nc(-c3ccccc3)nn12", "Potency": "inactive"},
      {"smiles": "Cn1c(SCCOc2ccccc2Cl)nnc1-c1cccs1", "activity, negative = inhibition": "inactive: -3.74%"},
      {"smiles": "Cc1[nH]c(=O)c(C(=O)/C=C/c2ccccc2)c2c1CCCC2", "Potency": "inconclusive: 25.1 µM [inhibitor, single point]"},
      {"smiles": "CCN(CC)c1ccc(N=Cc2cc(Br)ccc2O)cc1", "Potency": "inconclusive: 10 µM [inhibitor, partial curve]"},
      {"smiles": "O=C(CNC(=O)c1sc2ccccc2c1Cl)Nc1ccccc1F", "activity, negative = inhibition": "inactive: 4.74%"},
      {"smiles": "O=S(=O)(Nc1ccc(-c2csc(-c3ccccc3)n2)cc1)c1ccc(F)cc1", "Potency": "inconclusive: 31.6 µM [inhibitor, single point]"},
      {"smiles": "COCc1cc(Sc2cccc(Cl)c2Cl)nc(-c2ccccc2)n1", "Potency": "inconclusive: 35.5 µM [inhibitor, single point]"},
      {"smiles": "COc1ccc(CNC(=S)Nc2ccc3nc(N4CCN(C)CC4)cc(C)c3c2)cc1", "Potency": "inconclusive: 35.5 µM [inhibitor, single point]"},
      {"smiles": "Cc1ccc2c(CN3CC(C)CC(C)C3)cc(=O)oc2c1", "note": "(stereo not drawn)", "Potency": "inconclusive: 15.8 µM [inhibitor, single point]"},
      {"smiles": "Cc1ccc(N=Cc2cccc(O)c2O)c(C)c1", "Potency": "inconclusive: 7.08 µM [inhibitor, partial curve, poor fit]"},
      {"smiles": "FC(F)(F)c1cc(-c2cccs2)nc(N2CCOCC2)n1", "Potency": "inconclusive: 15.8 µM [inhibitor, single point]"},
      {"smiles": "CC(=O)c1ccc(N2C(=O)N(Cc3cccc(C(F)(F)F)c3)c3ccccc3S2(=O)=O)cc1", "Potency": "inconclusive: 22.4 µM [inhibitor, partial curve, poor fit]"},
      {"smiles": "O=C(NC1CCCCCC1)C1c2ccccc2C(=O)N1Cc1cccs1", "note": "(stereo not drawn)", "activity, negative = inhibition": "inactive: 12.5%"},
      {"smiles": "CC1=C(C(=O)OC2CCCC2)C(c2ccc(F)cc2F)CC(=O)N1", "note": "(stereo not drawn)", "Potency": "inconclusive: 35.5 µM [inhibitor, single point]"},
      {"smiles": "Cc1oc2c(c1C(=O)Nc1cccc(Br)c1)C1=NCCN1C=N2", "activity, negative = inhibition": "inactive: 2.86%"},
      {"smiles": "COc1ccccc1NS(=O)(=O)c1cccc(NC(=O)Nc2ccccc2)c1", "Potency": "active: 10 µM"},
      {"smiles": "O=[N+]([O-])c1ccc(O)c(/C=N/n2cnnc2)c1", "activity, negative = inhibition": "inactive: 2.67%"},
      {"smiles": "O=C(c1nc(-c2ccc(Cl)cc2)n2c1CCCCC2)N1CCN(c2ccccc2F)CC1", "Potency": "inconclusive: 8.91 µM [inhibitor, single point]"},
      {"smiles": "CCOC(=O)c1ccc(NC(=O)C(CC)(CC)C(=O)OCC)cc1", "Potency": "inconclusive: 5.62 µM [inhibitor, single point]"},
      {"smiles": "Cn1nnnc1SCC(=O)N1CCN(c2ccc(Cl)cc2)CC1", "Potency": "inconclusive: 17.8 µM [inhibitor, partial curve]"},
      {"smiles": "CC(C)(C)OC(=O)C[C@H]1C/C=C\\C[C@@H](CC(=O)NCCO)C(=O)N2CCC[C@H]2COC1=O", "Potency": "inconclusive: 6.31 µM [inhibitor, full curve, poor fit]"},
      {"smiles": "Cc1ccc(CCNC(=O)CS(=O)Cc2nc(-c3cccs3)oc2C)cc1", "note": "(stereo not drawn)", "Potency": "inconclusive: 8.91 µM [inhibitor, partial curve, poor fit]"},
      {"smiles": "CC(Oc1ccccc1)C(=O)OCC(=O)Nc1sccc1C(N)=O", "note": "(stereo not drawn)", "Potency": "inconclusive: 35.5 µM [inhibitor, single point]"},
      {"smiles": "Cc1cc(NC(=O)CN(C)CCOc2ccccc2)ccc1Br", "Potency": "inconclusive: 35.5 µM [inhibitor, single point]"},
      {"smiles": "N#C/C(=C\\c1ccc(Oc2ccc(C(F)(F)F)cc2[N+](=O)[O-])cc1)c1nc2ccccc2[nH]1", "Potency": "inconclusive: 5.01 µM [inhibitor, partial curve]"},
      {"smiles": "CCCCn1c(N)c(N(CCOC)C(=O)c2cc(-c3ccccc3Cl)nc3ccccc23)c(=O)[nH]c1=O", "activity, negative = inhibition": "inactive: 18.7%"},
      {"smiles": "COC1=CC(=O)c2c(ccc3ncnc(N)c23)C1=O", "Potency": "active: 0.891 µM"}
    ]}
  ]
}
